# Laboratory results: the supplement of paper PMC4604168 (melanoma cell lines)
# This is one part of the list. Single values are uncertain, as repeats are few or missing.
# Columns and labels:
# Assay in all cases: cell count relative to DMSO control; melanoma cells; higher = more viable cells
# Conditions in all cases: library dose: standard library concentration; 72 h
# G361 = system: G361
# IPC-298 = system: IPC-298
# IST-MEL1 = system: IST-MEL1
# LB2518-MEL = system: LB2518-MEL
# LOXIMVI = system: LOXIMVI
# MEL-HO = system: MEL-HO
# MZ2-MEL = system: MZ2-MEL
# MeWo = system: MeWo
# RPMI7951 = system: RPMI7951
# RVH-421 = system: RVH-421
# 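Note: cells treated in 1,536-well plates, then fixed and DAPI-stained, with nuclei counted from automated high-throughput microscope images.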
Compound,cell count (G361),cell count (IPC-298),cell count (IST-MEL1),cell count (LB2518-MEL),cell count (LOXIMVI),cell count (MEL-HO),cell count (MZ2-MEL),cell count (MeWo),cell count (RPMI7951),cell count (RVH-421)
"CC(C)C[C@H](NC(=O)[C@H](Cc1ccccc1)NC(=O)c1cnccn1)B(O)O [Bortezomib] + C/C(O)=C(\C#N)C(=O)Nc1cc(Br)ccc1Br [LFM-A13] (first compound 0.005 µM, partner dose 10 µM)",0.684%,8.36%,19.3%,3.61%,14.5%,49.4%,4.32%,11.2%,8.79%,17.5%
"Oc1cc(-c2nc(-c3ccccc3)[nH]c2-c2ccncc2)ccc1Cl + O=C(Oc1ccc([N+](=O)[O-])cc1)N1CCC(C(O)(c2ccc3c(c2)OCO3)c2ccc3c(c2)OCO3)CC1 [JZL184] (first compound 1 µM, partner dose 5 µM)",63.5%,85.4%,94.4%,122%,102%,82%,101%,91.4%,84.5%,70.2%
"COc1ccc(COc2ccc(Cc3cnc(N)nc3N)cc2OC)cc1 + C/C(O)=C(\C#N)C(=O)Nc1cc(Br)ccc1Br [LFM-A13] (first compound 5 µM, partner dose 10 µM)",109%,108%,106%,132%,94.7%,100%,121%,81.6%,91.3%,96.8%
"Cc1cc(Nc2cc(N3CCN(C)CC3)nc(Sc3ccc(NC(=O)C4CC4)cc3)n2)n[nH]1 [Tozasertib] + C[C@]12O[C@H](C[C@]1(O)CO)n1c3ccccc3c3c4c(c5c6ccccc6n2c5c31)CNC4=O [Lestaurtinib] (first compound 0.03 µM, partner dose 0.02 µM)",67.4%,70.4%,82.4%,63%,75.3%,85.1%,76.7%,64.1%,107%,55%
"COc1ccc(COc2ccc(Cc3cnc(N)nc3N)cc2OC)cc1 + Cc1cc(SCc2sc(-c3ccc(C(F)(F)F)c(F)c3)nc2C)ccc1OCC(=O)O [GW0742] (first compound 5 µM, partner dose 10 µM)",89.4%,97.9%,93.2%,92.3%,101%,105%,92.7%,96.1%,97.1%,121%
"Nc1ccn([C@@H]2O[C@H](CO)[C@@H](O)C2(F)F)c(=O)n1 [gemcitabine] + C/C(O)=C(\C#N)C(=O)Nc1cc(Br)ccc1Br [LFM-A13] (first compound 0.002 µM, partner dose 10 µM)",64.1%,66.1%,46.5%,74.6%,85.6%,75.8%,84.9%,43.2%,70.5%,77.2%
"Cc1cc([N+](=O)[O-])ccc1NS(=O)(=O)c1cc(Cl)ccc1Cl + O=C(Oc1ccc([N+](=O)[O-])cc1)N1CCC(C(O)(c2ccc3c(c2)OCO3)c2ccc3c(c2)OCO3)CC1 [JZL184] (first compound 5 µM, partner dose 5 µM)",62.4%,60.9%,67.5%,95%,66%,58.4%,74.9%,70.5%,98.3%,10.4%
"Cn1c(Nc2ccc(C(F)(F)F)cc2)nc2cc(Oc3ccnc(-c4ncc(C(F)(F)F)[nH]4)c3)ccc21 + O=C(Oc1ccc([N+](=O)[O-])cc1)N1CCC(C(O)(c2ccc3c(c2)OCO3)c2ccc3c(c2)OCO3)CC1 [JZL184] (first compound 0.4 µM, partner dose 5 µM)",27%,46.6%,88%,40.3%,95.2%,66.2%,66.6%,90%,56.7%,51.1%
"C#Cc1cccc(Nc2ncnc3cc(OCCOC)c(OCCOC)cc23)c1 [erlotinib] + O=C(Oc1ccc([N+](=O)[O-])cc1)N1CCC(C(O)(c2ccc3c(c2)OCO3)c2ccc3c(c2)OCO3)CC1 [JZL184] (first compound 4 µM, partner dose 5 µM)",76.1%,69.1%,110%,80.5%,76.7%,83.9%,95.3%,82.3%,60.9%,101%
"Clc1ccc(Nc2nnc(Cc3ccncc3)c3ccccc23)cc1 [vatalanib] + O=C(Oc1ccc([N+](=O)[O-])cc1)N1CCC(C(O)(c2ccc3c(c2)OCO3)c2ccc3c(c2)OCO3)CC1 [JZL184] (first compound 10 µM, partner dose 5 µM)",72.2%,91.4%,101%,115%,113%,75.4%,66.4%,68.5%,94.7%,69.4%
"CO[C@H]1C[C@@H]2CC[C@@H](C)[C@@](O)(O2)C(=O)C(=O)N2CCCC[C@H]2C(=O)O[C@H]([C@H](C)C[C@@H]2CC[C@@H](OCCO)[C@H](OC)C2)CC(=O)[C@H](C)/C=C(\C)[C@@H](O)[C@@H](OC)C(=O)[C@H](C)C[C@H](C)/C=C/C=C/C=C/1C [everolimus] + C[As](C)SC[C@H](NC(=O)CC[C@H](N)C(=O)O)C(=O)NCC(=O)O [Darinaparsin] (first compound 0.1 µM, partner dose 2 µM)",47.2%,57.5%,69.3%,56.1%,64.2%,51.7%,73%,53.8%,69%,53.6%
"O=C(O)c1ccc2c(c1)nc(Nc1cccc(Cl)c1)c1ccncc12 + C[As](C)SC[C@H](NC(=O)CC[C@H](N)C(=O)O)C(=O)NCC(=O)O [Darinaparsin] (first compound 2 µM, partner dose 2 µM)",51.9%,79.8%,74.7%,88.1%,32%,61.1%,61.1%,71.9%,68.4%,69.1%
"COc1cc(N2CCC(N3CCN(C)CC3)CC2)ccc1Nc1ncc(Cl)c(Nc2ccccc2S(=O)(=O)C(C)C)n1 + O=C(Oc1ccc([N+](=O)[O-])cc1)N1CCC(C(O)(c2ccc3c(c2)OCO3)c2ccc3c(c2)OCO3)CC1 [JZL184] (first compound 0.4 µM, partner dose 5 µM)",87.1%,110%,111%,98.3%,79.5%,86.5%,107%,67.9%,67.4%,92.5%
"c1cc(-c2cnn3cc(-c4ccc(OCCN5CCCCC5)cc4)cnc23)ccn1 [Dorsomorphin] + O=C(Oc1ccc([N+](=O)[O-])cc1)N1CCC(C(O)(c2ccc3c(c2)OCO3)c2ccc3c(c2)OCO3)CC1 [JZL184] (first compound 2 µM, partner dose 5 µM)",66.5%,80.7%,108%,58.1%,124%,87.3%,72%,82.1%,65.4%,108%
"Cc1cc(Nc2cc(N3CCN(C)CC3)nc(Sc3ccc(NC(=O)C4CC4)cc3)n2)n[nH]1 [Tozasertib] + Cn1cc(C2=C(c3cn(C4CCN(Cc5ccccn5)CC4)c4ccccc34)C(=O)NC2=O)c2ccccc21 [Enzastaurin] (first compound 0.03 µM, partner dose 4 µM)",77.3%,69.7%,53.9%,64.5%,104%,93.6%,76.7%,93.8%,59.7%,76.4%
"O=C(O)C(=O)Nc1sc2c(c1C(=O)O)CCNC2 + O=C(Oc1ccc([N+](=O)[O-])cc1)N1CCC(C(O)(c2ccc3c(c2)OCO3)c2ccc3c(c2)OCO3)CC1 [JZL184] (first compound 8.33333 µM, partner dose 5 µM)",98%,104%,104%,133%,93.3%,96.8%,91.9%,90.1%,102%,95.8%
"Cc1nc(Nc2ncc(C(=O)Nc3c(C)cccc3Cl)s2)cc(N2CCN(CCO)CC2)n1 [dasatanib] + O=C(Oc1ccc([N+](=O)[O-])cc1)N1CCC(C(O)(c2ccc3c(c2)OCO3)c2ccc3c(c2)OCO3)CC1 [JZL184] (first compound 0.02 µM, partner dose 5 µM)",69.3%,92.4%,63.6%,–,11.5%,74.6%,–,81.3%,43.6%,57.7%
"COc1cc2ncnc(Nc3ccc(Oc4ccccc4)cc3)c2cc1OC + C/C(O)=C(\C#N)C(=O)Nc1cc(Br)ccc1Br [LFM-A13] (first compound 10 µM, partner dose 10 µM)",71.3%,78.2%,90.5%,75.3%,98%,89.3%,75.1%,90.3%,89.6%,113%
"O=C(O)c1ccc2c(c1)nc(Nc1cccc(Cl)c1)c1ccncc12 + C/C(O)=C(\C#N)C(=O)Nc1cc(Br)ccc1Br [LFM-A13] (first compound 2 µM, partner dose 10 µM)",53.9%,75.2%,83.5%,–,80.5%,57.2%,–,68%,54.9%,75.2%
"COCC[n+]1c2c(n(Cc3cnccn3)c1C)C(=O)c1ccccc1C2=O + O=C(Oc1ccc([N+](=O)[O-])cc1)N1CCC(C(O)(c2ccc3c(c2)OCO3)c2ccc3c(c2)OCO3)CC1 [JZL184] (first compound 0.002 µM, partner dose 5 µM)",68.5%,37.8%,50.2%,–,75.5%,84.6%,–,38.6%,27.1%,85.7%
"CC(C)C[C@H](NC(=O)[C@H](Cc1ccccc1)NC(=O)c1cnccn1)B(O)O [Bortezomib] + Cc1cc(SCc2sc(-c3ccc(C(F)(F)F)c(F)c3)nc2C)ccc1OCC(=O)O [GW0742] (first compound 0.005 µM, partner dose 10 µM)",0.114%,17.5%,9.26%,–,3.55%,22.1%,–,12.4%,13.5%,5.75%
"O=C(CCCCCCC(=O)Nc1ccccc1)NO [vorinostat] + C/C(O)=C(\C#N)C(=O)Nc1cc(Br)ccc1Br [LFM-A13] (first compound 0.4 µM, partner dose 10 µM)",84.4%,89.9%,116%,79.9%,82.8%,94.7%,82.8%,91.7%,75.6%,18.1%
"Clc1ccc(Nc2nnc(Cc3ccncc3)c3ccccc23)cc1 [vatalanib] + Cc1cc(SCc2sc(-c3ccc(C(F)(F)F)c(F)c3)nc2C)ccc1OCC(=O)O [GW0742] (first compound 10 µM, partner dose 10 µM)",64.5%,73.6%,66.9%,–,72.5%,49.2%,–,55.6%,78.6%,66.9%
